The list shows a part of the results.

The target of this assay is T1, OsWOX13 (Oryza sativa, UniProt Q5QMM3 1-267).
T1 sequence: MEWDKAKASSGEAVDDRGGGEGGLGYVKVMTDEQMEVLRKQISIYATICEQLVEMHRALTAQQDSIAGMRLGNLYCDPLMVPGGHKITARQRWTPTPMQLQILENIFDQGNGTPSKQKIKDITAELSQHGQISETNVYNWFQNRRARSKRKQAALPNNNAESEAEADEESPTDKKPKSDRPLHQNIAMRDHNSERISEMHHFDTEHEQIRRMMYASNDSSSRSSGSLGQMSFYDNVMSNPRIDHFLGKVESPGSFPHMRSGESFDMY
Put plainly: protein-binding microarray (RPBM); PBS, 2% BSA, 51.3 ng/ul salmon testes DNA, 50 uM zinc acetate, 200 nM TF, 25 C, 1 h; high values mean tight binding. The conditions noted are these: protein: recombinant; tags: N-terminal polyhistidine and DsRed monomer fusion (pET32a); label: CyDye5-dUTP incorporated in the synthesized complementary strand; 3' TTTTT single-stranded linker to array surface; dsDNA, one strand shown. In short, it runs like this: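 Using Ni–NTA, transcription factors fused N-terminally to polyhistidine and DsRed were purified after expression in E. coli BL21-CodonPlus. These were incubated at 200 nM with a blocked, double-stranded custom Agilent array for 1 h at 25 °C in a buffer containing 50 µM zinc acetate, and the array was washed. The binding signal is per-feature fluorescence intensity (arbitrary units) on an Axon 4000B scanner.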
On to “ATCATGACGTAATTAGGCTCAAAAGATTCATCTCGTGATTCGGAGTCACCTAGTGCAG”, for which the binding signal was 19300 fluorescence intensity (a.u.).

For “GGATGCCAATAGTTATTTGTGATTGTCTATTTAGAATTTCCGGAGTCACCTAGTGCAG”, the binding signal was 3970 fluorescence intensity (a.u.).

For the sequence “GGTTTCCAATCACGAGAGCGAGCGGCTGCTTGACCATTGACGGAGTCACCTAGTGCAG”, the binding signal was 17100 fluorescence intensity (a.u.).

Turning to “TGCACCAATTTGATTGATACCAATTTGCTTTAATTTCGTCCGGAGTCACCTAGTGCAG”, the binding signal was 57200 fluorescence intensity (a.u.).

For the sequence “TATAAGCTAAAATTTGAATTAAATTTAGAGATGATTTTGACGGAGTCACCTAGTGCAG”, the binding signal is 3530 fluorescence intensity (a.u.).

With “GACAATAGGAAAACGATCATCAATCATGACTATCACTGTTCGGAGTCACCTAGTGCAG”, the binding signal is 4970 fluorescence intensity (a.u.).

In the case of “AACTTCTAATTTTAACGTGAAACTAAACACAGCCTTATCTCGGAGTCACCTAGTGCAG”, the binding signal is 4940 fluorescence intensity (a.u.).

Turning to “ATGCCAAATTTGACTATCAACAACAGGTGCCAGACAGACCCGGAGTCACCTAGTGCAG”, the binding signal is 6780 fluorescence intensity (a.u.).

For the sequence “AAAATTTATTTTGATAGATATATTTTAATCCAATAGCCTACGGAGTCACCTAGTGCAG”, the binding signal is 14200 fluorescence intensity (a.u.).

Take “TCGAGATTGATCGACGATATCCCCGGCGGCTTCAGCTTGACGGAGTCACCTAGTGCAG”: the binding signal is 23400 fluorescence intensity (a.u.).

Consider “GATGATATTTGGAAGATTCTGATTAGCCATCTCCTTTAATCGGAGTCACCTAGTGCAG”, for which the binding signal was 4710 fluorescence intensity (a.u.).

With “CCAAATTATCGCTAGTACAGAACTTGTTATCCGTAACGACCGGAGTCACCTAGTGCAG”, the binding signal is 7630 fluorescence intensity (a.u.).

As to “TGTTTTCCTTTAAATTGATTGCATAGTTAGGTCCGACCAACGGAGTCACCTAGTGCAG”, the binding signal is 26400 fluorescence intensity (a.u.).

For the sequence “TTTGAATGACATGACTGCAAGACGTGCACGAGGTGATAGGCGGAGTCACCTAGTGCAG”, the binding signal is 14100 fluorescence intensity (a.u.).

For the sequence “GCCTAATTAAGAACAAATTGCGTGAAATAATATATGTTATCGGAGTCACCTAGTGCAG”, the binding signal is 22500 fluorescence intensity (a.u.).

Regarding “AGTATAGACGTTAACAGGTGACTGCTTGAAACTGGGCAGTCGGAGTCACCTAGTGCAG”, the binding signal was 5070 fluorescence intensity (a.u.).

For the sequence “GGTCAATCAGGACCGTCTATCAGATCAGACGGTTCCGGCTCGGAGTCACCTAGTGCAG”, the binding signal is 23400 fluorescence intensity (a.u.).

On to “CGTGTGGATTAACTCCCAATTAAGATGGTTTGTCTATTGTCGGAGTCACCTAGTGCAG”, for which the binding signal was 4710 fluorescence intensity (a.u.).

In the case of “TATTAATATTCAATCAAGAGTTATACTAATATATTCCAAACGGAGTCACCTAGTGCAG”, the binding signal is 20000 fluorescence intensity (a.u.).

“AAAATTAATATTATTTAATTTCCTTTAGAAAGAAAACATTCGGAGTCACCTAGTGCAG”: the binding signal was 8510 fluorescence intensity (a.u.).

“CCGGCCCACAAATTAAATGGAATCGCTTGCTGGCCTACGCCGGAGTCACCTAGTGCAG”: the binding signal is 3560 fluorescence intensity (a.u.).

As to “ATTTGACTTGATTTTGTAATATCGTGACAATTTGGGACGCCGGAGTCACCTAGTGCAG”, the binding signal is 21100 fluorescence intensity (a.u.).

On to “GATTGGTCATAATTATATATATATATTACTTCCTAATCACCGGAGTCACCTAGTGCAG”, for which the binding signal was 6390 fluorescence intensity (a.u.).

As for “AACAACATGGATTAATTTAATCAGGTCTTCGCTGTTAAGACGGAGTCACCTAGTGCAG”, the binding signal was 9400 fluorescence intensity (a.u.).

With “TTCTAGCGATAAATTAATTAATGCTCCTCTCGCCGCGCCGCGGAGTCACCTAGTGCAG”, the binding signal is 13300 fluorescence intensity (a.u.).

As to “ATTTGATTGAATGTAGAGATTCTTGTAATAGGATTCTTTGCGGAGTCACCTAGTGCAG”, the binding signal was 64700 fluorescence intensity (a.u.).

In the case of “CAGGTTGATTAGTGGGCGATCGATCTGCGTAGAAAAGCAACGGAGTCACCTAGTGCAG”, the binding signal was 22900 fluorescence intensity (a.u.).

Consider “GGTAGCAGGTGATTGGATTGAACCATTGCTCAAATCAAATCGGAGTCACCTAGTGCAG”, for which the binding signal is 11400 fluorescence intensity (a.u.).

Turning to “GGGTCCTTTGAATGATTACAAATGGTAAGTTGGGCCGACGCGGAGTCACCTAGTGCAG”, the binding signal is 3160 fluorescence intensity (a.u.).

Consider “TTCCAAGTGATTTGGTCCGGTTCTTCTTCATCCAGCTGCACGGAGTCACCTAGTGCAG”, for which the binding signal was 3710 fluorescence intensity (a.u.).

As for “TTTACATGTTAATTACTGAGCTGTAAACCGCACAAAGTCACGGAGTCACCTAGTGCAG”, the binding signal was 9650 fluorescence intensity (a.u.).

As to “AAATTTTGACATCAATTAAATGATCATGTATTACCAAAATCGGAGTCACCTAGTGCAG”, the binding signal is 21400 fluorescence intensity (a.u.).

Consider “CAAATACTTCAGTTAATTATGGCGCCGTGGAGTCGCTGTCCGGAGTCACCTAGTGCAG”, for which the binding signal was 7050 fluorescence intensity (a.u.).

Turning to “TTCCAACAGGGCCTAATTGGAAGACGTAGTTTTGGACCGTCGGAGTCACCTAGTGCAG”, the binding signal is 17800 fluorescence intensity (a.u.).

For “ACACTAATCTGACAGATGAGGACCAGTTTGCAAAGGCTGACGGAGTCACCTAGTGCAG”, the binding signal is 9190 fluorescence intensity (a.u.).

For the sequence “TAGATACGGCGGATGTGATTAGTATTCGAGATGACGCACGCGGAGTCACCTAGTGCAG”, the binding signal was 3700 fluorescence intensity (a.u.).

Consider “CAACAAATTTCAAATCTTCAGGAAGCTGTTGAAAACCTTGCGGAGTCACCTAGTGCAG”, for which the binding signal was 3980 fluorescence intensity (a.u.).

“AACAAATTGAGCGACCTAAAGTGAACTTATTCCTTATTACCGGAGTCACCTAGTGCAG”: the binding signal is 8060 fluorescence intensity (a.u.).

For the sequence “TGAGTGATGGGCGAAATTACTACTCCTTCGTAATACGATTCGGAGTCACCTAGTGCAG”, the binding signal is 3990 fluorescence intensity (a.u.).

On to “TTGTATCGTTTTGGTAGGGGATGGGATGTGCTATACGGGGCGGAGTCACCTAGTGCAG”, for which the binding signal is 3180 fluorescence intensity (a.u.).

“CACACCTCTAATTATAAATTTATAATATCCTTTAGTTCCCCGGAGTCACCTAGTGCAG”: the binding signal is 20400 fluorescence intensity (a.u.).

For the sequence “ACATAAAATTGATGTTACTGGATTTATCATTAATCAAACTCGGAGTCACCTAGTGCAG”, the binding signal was 19700 fluorescence intensity (a.u.).

(Values after publication PMC7819943, “Rice protein-binding microarrays: a tool to detect cis-acting elements near promoter regions in rice”.)
